Results taken from article PMC5216124, “Cell division orientation is coupled to cell–cell adhesion by the E-cadherin/LGN complex” (Nature Communications, 2017).
These are yes or no findings as the source states them, for the method shown. For some of these results: In cells and extracts the contact can be indirect. Some binding calls cover weakened binding; strength is not graded here. For some of these results: Where a sequence is shown, tags or fusion partners need not be part of it.

Amino acid sequences for entries named in this document (tags omitted). A change or cut given only in a name is not applied to a line headed by its entry. Chains listed by the source or under a name are the forms on record and can include a tag or linker. Residues count along the entry.
E-cadherin juxtamembrane domain fused to the RFP-tagged mitochondrial localization signal of ActA (P09803, residues 736-783): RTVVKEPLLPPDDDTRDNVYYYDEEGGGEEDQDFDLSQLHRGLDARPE
E-cadherin JMD with DEE758-760AAA mutation, targeted to mitochondria (P09803, form named): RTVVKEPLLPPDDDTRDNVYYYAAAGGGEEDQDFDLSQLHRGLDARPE
E-cadherin JMD D758A, targeted to mitochondria (P09803, form named): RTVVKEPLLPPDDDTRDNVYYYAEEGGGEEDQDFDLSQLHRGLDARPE

T1: LGN-TPR:S-tag (human, UniProt P81274 8-311)
T1 construct: LGN, human, NM_013296.4, TPR repeats, amino acids 8-311; also called LGN-TPR with C-terminal S-tag; not shown: S-tag, C-terminal, kept
T1 sequence (looked up): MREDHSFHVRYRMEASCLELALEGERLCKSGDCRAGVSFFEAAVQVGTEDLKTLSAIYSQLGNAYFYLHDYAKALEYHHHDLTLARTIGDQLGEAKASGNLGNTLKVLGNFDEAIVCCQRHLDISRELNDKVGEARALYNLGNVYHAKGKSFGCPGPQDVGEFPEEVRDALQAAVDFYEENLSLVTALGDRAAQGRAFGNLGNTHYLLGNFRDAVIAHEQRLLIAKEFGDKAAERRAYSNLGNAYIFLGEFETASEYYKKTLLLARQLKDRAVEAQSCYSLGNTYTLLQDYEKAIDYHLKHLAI

B1: TPR repeats of human LGN (domain or fragment, UniProt P81274 8-311)
chain: T1 sequence (looked up)
B2: YFP-tagged TPR repeats of human LGN (domain or fragment, UniProt P81274 8-351)
chain: MREDHSFHVRYRMEASCLELALEGERLCKSGDCRAGVSFFEAAVQVGTEDLKTLSAIYSQLGNAYFYLHDYAKALEYHHHDLTLARTIGDQLGEAKASGNLGNTLKVLGNFDEAIVCCQRHLDISRELNDKVGEARALYNLGNVYHAKGKSFGCPGPQDVGEFPEEVRDALQAAVDFYEENLSLVTALGDRAAQGRAFGNLGNTHYLLGNFRDAVIAHEQRLLIAKEFGDKAAERRAYSNLGNAYIFLGEFETASEYYKKTLLLARQLKDRAVEAQSCYSLGNTYTLLQDYEKAIDYHLKHLAIAQELNDRIGEGRACWSLGNAYTALGNHDQAMHFAEKHLEI
B3: GFP-p120-catenin (protein, UniProt O60716 1-968)
chain: MDDSEVESTASILASVKEQEAQFEKLTRALEEERRHVSAQLERVRVSPQDANPLMANGTLTRRHQNGRFVGDADLERQKFSDLKLNGPQDHSHLLYSTIPRMQEPGQIVETYTEEDPEGAMSVVSVETSDDGTTRRTETTVKKVVKTVTTRTVQPVAMGPDGLPVDASSVSNNYIQTLGRDFRKNGNGGPGPYVGQAGTATLPRNFHYPPDGYSRHYEDGYPGGSDNYGSLSRVTRIEERYRPSMEGYRAPSRQDVYGPQPQVRVGGSSVDLHRFHPEPYGLEDDQRSMGYDDLDYGMMSDYGTARRTGTPSDPRRRLRSYEDMIGEEVPSDQYYWAPLAQHERGSLASLDSLRKGGPPPPNWRQPELPEVIAMLGFRLDAVKSNAAAYLQHLCYRNDKVKTDVRKLKGIPVLVGLLDHPKKEVHLGACGALKNISFGRDQDNKIAIKNCDGVPALVRLLRKARDMDLTEVITGTLWNLSSHDSIKMEIVDHALHALTDEVIIPHSGWEREPNEDCKPRHIEWESVLTNTAGCLRNVSSERSEARRKLRECDGLVDALIFIVQAEIGQKDSDSKLVENCVCLLRNLSYQVHREIPQAERYQEAAPNVANNTGPHAASCFGAKKGKDEWFSRGKKPIEDPANDTVDFPKRTSPARGYELLFQPEVVRIYISLLKESKTPAILEASAGAIQNLCAGRWTYGRYIRSALRQEKALSAIADLLTNEHERVVKAASGALRNLAVDARNKELIGKHAIPNLVKNLPGGQQNSSWNFSEDTVISILNTINEVIAENLEAAKKLRETQGIEKLVLINKSGNRSEKEVRAAALVLQTIWGYKELRKPLEKEGWKKSDFQVNLNNASRSQSSHSYDDSTLPLIDRNQKSDKKPDREEIQMSNMGSNTKSLDNNYSTPNERGDHNRTLDRSGDLGDMEPLKGTTPLMQDEGQESLEEELDVLVLDDEGGQVSYPSMQKI

Legend:
LGN-TPR:S-tag = molecular target: T1, LGN-TPR:S-tag; experiment: pull-down; in vitro competition: E-cad-cyto/LGN-TPR:S-tag complex (GST cleaved off with TEV) held on S-protein agarose by the S-tag; 100 μg NuMA (1808-1988) added, 4 °C overnight; blotted for LGN and E-cadherin; both purified
[1] = molecular target: GST-tagged cytosolic tail of mouse E-cadherin (mouse) (UniProt P09803); experiment: pull-down; GST pull-down on glutathione agarose from cleared lysate of E. coli co-expressing both proteins; wash 20 mM Tris-HCl pH 7.5, 150 mM NaCl, 2.5 mM DTT, 0.005% Tween, 2.5% glycerol, 4 °C; blotted for GST and LGN
[2] = molecular target: E-cadherin JMD with DEE758-760AAA mutation, targeted to mitochondria (mouse) (UniProt P09803); experiment: mitochondrial co-recruitment assay (live-cell confocal imaging); E-cadherin tail constructs fused to RFP-tagged MLS of ActA held at mitochondria of U2OS cells; recruitment of co-expressed YFP-LGN-TPR or GFP-p120-catenin scored as fluorescence at mitochondria
[3] = molecular target: E-cadherin JMD D758A, targeted to mitochondria (mouse) (UniProt P09803); experiment: as above
[4] = molecular target: E-cadherin juxtamembrane domain fused to the RFP-tagged mitochondrial localization signal of ActA (mouse) (UniProt P09803); experiment: as above

binding (LGN-TPR:S-tag)	binding [1]	binding [2]	binding [3]	binding [4]	Molecule
binds					E-cadherin cytosolic tail, GST cleaved off (from UniProt P09803 736-783) (domain or fragment)
	binds				B1
		no binding	no binding	binds	B2
			binds	binds	B3
